Several values for one entry are separate records, joined by “and”; a condition that tells them apart may be missing. Equal values may be shown once. Out of some 110,000 compounds screened, about 230 (0.21%) showed an effect of 50% or more. The list shows a part of the results.
molecular target: DPAP1 (Plasmodium falciparum, UniProt Q8IIJ9); test: primary screen, percent inhibition; read by cleavage of a fluorogenic dipeptide substrate; higher = more effect of the substance; parameters: species or system P. falciparum D10 trophozoite lysates; single well
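Further: 30 min substrate incubation versus DMSO and 10 µM JCP410 controls.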

DPAP1, sequence (Q8IIJ9 whole entry, looked up): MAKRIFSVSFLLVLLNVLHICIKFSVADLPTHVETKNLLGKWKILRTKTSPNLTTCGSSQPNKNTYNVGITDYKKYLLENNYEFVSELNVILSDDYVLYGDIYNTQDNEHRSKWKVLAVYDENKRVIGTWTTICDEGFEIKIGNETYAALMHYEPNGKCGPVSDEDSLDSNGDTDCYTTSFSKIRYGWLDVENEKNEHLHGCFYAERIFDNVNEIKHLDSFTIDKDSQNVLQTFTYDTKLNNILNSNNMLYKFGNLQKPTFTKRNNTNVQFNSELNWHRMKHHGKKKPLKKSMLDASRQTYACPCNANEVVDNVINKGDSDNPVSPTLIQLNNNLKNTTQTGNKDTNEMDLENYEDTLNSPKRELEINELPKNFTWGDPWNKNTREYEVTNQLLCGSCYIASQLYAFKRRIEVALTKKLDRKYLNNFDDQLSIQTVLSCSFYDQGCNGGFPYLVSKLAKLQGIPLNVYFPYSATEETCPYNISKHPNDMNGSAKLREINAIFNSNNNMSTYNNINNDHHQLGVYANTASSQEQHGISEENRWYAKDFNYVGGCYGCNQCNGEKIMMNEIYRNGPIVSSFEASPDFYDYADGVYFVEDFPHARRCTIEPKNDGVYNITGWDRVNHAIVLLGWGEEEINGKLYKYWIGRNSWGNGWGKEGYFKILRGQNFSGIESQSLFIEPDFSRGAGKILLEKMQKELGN

Row | Structure (SMILES) | % Inhibition @ 10 uM
1 | Cc1ccc2[nH]c(C(O)C(O)c3nc4cc(C)ccc4[nH]3)nc2c1 (stereo not drawn) | -1.11%
2 | COc1cc(CCNCc2c(C(=O)O)c(C)n(Cc3cccc(Cl)c3)c2C)cc(OC)c1OC | 6.02%
3 | O=C1NC(=O)C(Cc2ccccc2)(Cc2ccccc2)C(=O)N1 | -8.2%
4 | Cc1ccc(C2c3c(oc4ccccc4c3=O)C(=O)N2c2nc(C)c(C)s2)cc1 (stereo not drawn) | -1.86%
5 | N#CC1=C(N)Oc2cc(O)ccc2C12C(=O)Nc1ccc(Br)cc12 (stereo not drawn) | -1.74%
6 | CN(C)CCN1C(=O)C2C(c3ccccc3)C=CC(c3ccccc3)C2C1=O (stereo not drawn) | 0.408%
7 | Cc1cc(C)n(-c2nc3cc(Cl)c(Cl)cc3n3c(C)nnc23)n1 | -0.602%
8 | Cc1ccc2c(c1)-c1onc(C(=O)N(CCN(C)C)Cc3ccco3)c1CO2 | -7.84%
9 | CCCSc1ccccc1NC(=O)c1sc2nc(-c3ccncc3)ccc2c1N | -3.71%
10 | C=CCSc1nnc(NC(=O)c2cc(=O)c3cc(Cl)ccc3o2)s1 | -1.47%
11 | CCC(NC(=O)Cc1ccccc1)C(=O)O (stereo not drawn) | 4.82%
12 | Cc1cc(F)ccc1NC(=O)Cn1nc(C(F)(F)F)cc1C1CC1 | -3.18%
13 | Cc1ccc2c(c1)C1CN(C)CCC1N2 (stereo not drawn) | 0.634% and -0.127%
14 | CCOc1ccc(C2C3=C(O)CC(C)(C)CC3=NC(C)=C2C(=O)OC)cc1 (stereo not drawn) | -4.77%
15 | CC1CC(C)CN(Cc2nc3c(c(=O)n(C)c(=O)n3C)n2Cc2ccc(Cl)cc2Cl)C1 (stereo not drawn) | -4.14%
16 | O=C(c1ccccc1Br)N1CCN(c2ncccn2)CC1 | 3.32%
17 | CC1(C)CC(=O)C(/C=N/Cc2ccco2)=C(O)C1 | -2.27%
18 | Cc1cc2nc3s/c(=C/c4ccccc4)c(=O)n3c2cc1C | -1.37%
19 | N#CC1(NC(=O)[C@H]2CCCC[C@@H]2CBr)CC1 | 1.7%
20 | C=CCN1C(=O)c2[nH]nc(-c3ccccc3O)c2C1c1ccc(O)cc1 (stereo not drawn) | 0.00706%
21 | CCC(=O)NCCCOc1ccccc1 | 4.86%
22 | COc1cccc(-c2cn3c(n2)sc2cc(C(=O)N4CCCCCC4)ccc23)c1 | 17.6%
23 | Cc1ccccc1CN1CCN(CC(=O)NC2CCCCCCC2)C1=O | 0.402%
24 | C=CCC(CN)(CC=C)c1ccc(OC)c(OC)c1 | -1.71%
25 | CC(CCc1ccccc1)NC(=O)Cc1noc2ccccc12 (stereo not drawn) | 1.23%
26 | Cc1cc(C)c2nc(N3CCC(C(=O)N4CCC(C)CC4)CC3)sc2c1 | -1.58%

Row | Structure (SMILES) | % Inhibition @ 10 uM
27 | Cc1ccc(NC(=O)c2ccc(OC(C)C)cc2)nc1 | 5.61%
28 | COc1ccc(C(=O)Nc2ccc(CN3CCOCC3)cc2)cc1Cl | -3.39%
29 | CN(CC1CCCO1)C1CCN(S(=O)(=O)c2csc(C(N)=O)c2)CC1 (stereo not drawn) | -1.23%
30 | Nc1nc2cc(Cl)ccc2n1CCCO | 0.778%
31 | COC(=O)c1ccc(OCC2c3cc(OC)c(OC)cc3CCN2C(=S)NC(C)(C)C)cc1 (stereo not drawn) | -1.2%
32 | COCCN1C(=O)c2[nH]nc(-c3ccccc3O)c2C1c1cc(Br)c(O)c(OC)c1 (stereo not drawn) | 3.62%
33 | O=C(CNC(=S)N1CC2CC(C1)c1cccc(=O)n1C2)NCc1ccc(F)cc1 (stereo not drawn) | -4.06%
34 | CN(CCCNc1nc2ccccc2c2nc(-c3cccnc3)nn12)Cc1ccccc1 | -4.21%
35 | Cc1ccc(S(=O)(=O)N(CC(=O)NCc2cccnc2)c2cccc(Cl)c2C)cc1 | -9.75%
36 | CCOc1ccc(NC(=O)CN2CCCc3ccccc32)cc1 | 2.44%
37 | CCOC(=O)C1=C(C)OC(N)=C(C#N)C1c1ccoc1 (stereo not drawn) | 1.4%
38 | CCOc1ccc(-c2nonc2NC(=O)c2cccc(Cl)c2)cc1 | 9.74%
39 | COc1cccc(CN2CCN(C3CCN(Cc4ccccc4)CC3)CC2)c1OC | -9.72%
40 | O=C(O)C1CCCCC1C(=O)NC1CCCCCC1 (stereo not drawn) | 1.15%
41 | CCOc1ccccc1C(=O)NCCc1c(C)[nH]c2ccccc12 | 1.1%
42 | COc1ccc(OC)c(-c2cc(C(=O)N3CCCCC3)no2)c1 | -1.84%
43 | CC1CCc2c(sc3nc(-c4ccccc4)oc(=O)c23)C1 (stereo not drawn) | 2%
44 | O=C(NCc1ccccn1)C(c1ccccc1)N1Cc2ccccc2C1=O (stereo not drawn) | -8.42%
45 | O=[N+]([O-])c1cccc(-c2cnc3ccccc3n2)c1 | -1.45%
46 | N#Cc1c(N)ccn(-c2ccc(Cl)cc2)c1=O | 1.04%
47 | O=C(C1=C(O)C(=O)N(CCc2ccc(O)cc2)C1c1ccccc1F)c1ccccc1 (stereo not drawn) | 0.231%
48 | C=Cc1ccc(Cn2c(C(=O)O)c(CNC3CCCCCC3)c3ccc(OC)cc32)cc1 | 7.63%
49 | O=C(c1cc2ccccc2cc1OCC(O)CN1CCCCC1)N1CCCCC1 (stereo not drawn) | -3.4%
50 | CSc1nc(C)cc(C)c1CN | -3.04%
51 | CCCN1CCN(C(=O)Cn2ncc3c4ccccc4n(Cc4ccccc4)c3c2=O)CC1 | 0.137%
52 | COc1ccc(CCNC(=O)Cn2cnc3c(nc4n3CCCCC4)c2=O)cc1OC | 2.13%

Row | Structure (SMILES) | % Inhibition @ 10 uM
53 | CCOC(=O)c1c(NC(=O)c2ccc3ccccc3c2)sc(C(=O)OC)c1C | -2.98%
54 | CCCC1=C(C(=O)OCC)C(c2ccc(F)cc2F)C(C#N)=C(N)O1 (stereo not drawn) | -1.98%
55 | N#CCNC(=O)[C@H](CC1CCCCC1)NC(=O)C1=CCCC1 | -5.21%
56 | Cc1oc(-c2ccccc2Cl)nc1CSCC(=O)NCc1ccco1 | -3.08%
57 | CN(Cc1ccccc1)C(=O)c1cc2c(s1)-c1ccccc1S(=O)(=O)C2 | -2.17%
58 | O=C(CC1CCCCC1)Nc1c2c(nn1-c1cccc(Cl)c1)CSC2 | 3.5%
59 | CSCCCN1CCCC(C(N)=O)C1 (stereo not drawn) | -1.21%
60 | Cc1cccc(Oc2nc3ccccn3c(=O)c2/C=C(\C#N)C(=O)NCC2CCCO2)c1C (stereo not drawn) | -5.34%
61 | CC(Sc1c[nH]c2ccccc12)C(=O)O (stereo not drawn) | 1.88%
62 | CC1CCc2c(sc(N)c2C(=O)Nc2ccc(Cl)cc2)C1 (stereo not drawn) | -4.89%
63 | CC(=O)CSc1nc2ccccc2s1 | 3.01%
64 | CCOC(=O)c1c(NC(C)=O)sc2c1CCC/C2=N\OC(=O)c1cc(OC)c(OC)c(OC)c1 | -1.4%
65 | COCCn1c(SCC(=O)N2CCCC2)nnc1-c1c[nH]c2ccccc12 | -3.1%
66 | COc1ccc(NCc2cc(Cl)ccc2OC)cc1 | 5.39%
67 | Cc1c(CN2CCCC3CCCCC32)c(=O)n(-c2ccccc2)n1C (stereo not drawn) | 5.2%
68 | O=S1(=O)CCC(S(=O)(=O)NCc2ccccc2)C1 (stereo not drawn) | -2.77%
69 | CCN1CCN(c2c(C(=O)c3ccccc3)cnc3ccc(OC)cc23)CC1 | -2.18%
70 | COc1ccc(C(=O)Nc2ccc3[nH]c4c(c3c2)CCCC4)cc1OC | 1.37%
71 | CCO/C(O)=C1/C(C)=Nc2nc3ccccc3n2C1c1cccc(F)c1 (stereo not drawn) | -1.62%
72 | CCOC(=O)NC(=O)NCCN1CCOCC1 | -0.403%
73 | COc1ccc(CCNC(=O)CN2C(=O)CSc3ncccc32)cc1OC | -2.37%
74 | Cc1onc(-c2c(Cl)cccc2Cl)c1C(=O)Nc1sc(C)c(C)c1C(N)=O | 2.03%
75 | Cc1c(Cl)cccc1N(CC(=O)NCc1ccco1)S(=O)(=O)c1ccccc1 | -13.5%
76 | CC(C)C[C@H](NC(=O)c1cccc2[nH]ccc12)C(=O)NCC#N | -3.97%
77 | CCC(=O)NC(=O)/C(C#N)=C/Nc1ccccc1OC | -4.75%
78 | Cc1ccc(-c2nc3cc(N)ccc3o2)cc1 | -7.01%

Row | Structure (SMILES) | % Inhibition @ 10 uM
79 | CC(C)/N=C(/NS(=O)(=O)c1ccc(Cl)cc1)C(C)C | 10.1%
80 | CN(Cc1ccccc1)S(=O)(=O)c1ccc2[nH]c3c(c2c1)CCCC3 | 7.46%
81 | NC(=O)c1cc(S(=O)(=O)N2CCN(C(=O)c3ccco3)CC2)cs1 | 2.24%
82 | COc1ccc(OCC(=O)Nc2c(C(=O)N3CCC(N4CCCCC4)CC3)oc3ccccc23)cc1 | -2.16%
83 | CC1=CC2=NC(=O)/C(=C\c3ccc4c(c3)OCO4)C(=N)N2O1 | -3.23%
84 | Cc1c(Cl)cccc1-c1ccc(C=O)o1 | -0.597%
85 | O=C(Nc1ccccc1F)c1ccc(F)cc1 | -3.03%
86 | Oc1nnc(/C=C/c2ccc(F)cc2)o1 | 0.032%
87 | O=C(Nc1ccccc1C(F)(F)F)c1ccc2c(c1)C(=O)N(Cc1cccnc1)C2=O | -3.04%
88 | CCCCCCOc1ccc(CNCCCN(CC)CC)cc1 | -3.12%
89 | Cc1ccc(C(=O)c2oc3ccccc3c2NC(=O)c2ccco2)cc1 | -1.11%
90 | COCCCNC(=O)CCn1nc(-c2ccccc2)ccc1=O | -3.58%
91 | COC(=O)C1=C(C)NC(=O)NC1c1cccc(Oc2ccccc2)c1 (stereo not drawn) | 1.12%
92 | CC(=O)c1c(C)nn2c3ccccc3n(CCN3CCOCC3)c12 | -3.92%
93 | COc1ccc(NC(=O)CN(Cc2ccc(Cl)cc2)S(=O)(=O)c2ccccc2)cc1 | -1.84%
94 | O=C(NCC1COc2ccccc2O1)c1ccco1 (stereo not drawn) | -5.76%
95 | CCOC(=O)c1c(C)[nH]c(C)c1S(=O)(=O)N1CCC(C(=O)Nc2nc(C)cs2)CC1 | -2.31%
96 | CC(CNc1nc2ccccc2n2cnnc12)c1ccccc1 (stereo not drawn) | 0.981%
97 | CC(CCc1ccccc1)NC(=O)Cn1ncc2c(=O)oc3ccccc3c21 (stereo not drawn) | -2.83%
98 | CCOc1ccccc1N(CC(=O)N1CCOCC1)S(=O)(=O)c1ccc(C)cc1 | 1.71%
99 | Cc1ccc(C2C(C#N)=C(N)OC3=C2C(=O)CCC3)s1 (stereo not drawn) | 1.42%
100 | CCOC(=O)c1sc2nc(SC)n(Cc3ccccc3)c(=O)c2c1C | -1.68%
101 | Cc1ccc(C2=NN3C(C2)c2ccccc2OC3c2ccccc2Cl)o1 (stereo not drawn) | -5.51%
102 | O=C(c1ccccc1O)N1CCOCC1 | -2.87%

— paper PMC6919601, “Identification of Plasmodium dipeptidyl aminopeptidase allosteric inhibitors by high throughput screening” (PLoS ONE, 2019)
